# Laboratory results from patent publication US6528630B1 (priority 1997, dated 2003).
# How the values were obtained:
# [1] = test system: HEK 293 cells transiently transfected with pCMVβgal only; assay: Whole-cell patch clamp of negative control HEK 293 cells (pCMVβgal only)
# Description: Individual transiently transfected HEK 293 cells were assayed for the presence of voltage-dependent barium currents using the whole-cell variant of the patch clamp technique [Hamill et al. (1981). Pflugers Arch. 391:85-100]. HEK 293 cells transiently transfected with pCMVβgal only were assayed for barium currents as a negative control in these experiments. The cells were placed in a bathing solution that contained barium ions to serve as the current carrier. Choline chloride, instead of NaCl or KCl, was used as the major salt component of the bath solution to eliminate currents through sodium and potassium channels. The bathing solution contained 1 mM MgCl2 and was buffered at pH 7.3 with 10 mM HEPES (pH adjusted with sodium or tetraethylammonium hydroxide). […] Currents were measured through a 500 megohm headstage resistor with the Axopatch IC (Axon Instruments, Foster City, Calif.) amplifier, interfaced with a Labmaster (Scientific Solutions, Solon, Ohio.) data acquisition board in an IBM-compatible PC. […] Data were analyzed with pClamp or Quattro Professional (Borland International, Scotts Valley, Calif.) programs. […]
# Twenty-one negative control HEK 293 cells (transiently transfected with the lacZ gene expression vector pCMVβgal only) were analyzed by the whole-cell variant of the patch clamp method for recording currents.
# [2] = target: human neuronal calcium channel α1D and α2 subunits (Homo sapiens, UniProt Q01668); assay: Two-electrode voltage clamp of Xenopus oöcytes injected with α1D and α2 transcripts; conditions: very small Ba2+ currents (15-30 nA)
# [3] = target: T1, human neuronal calcium channel α1D subunit (Homo sapiens, UniProt Q01668)
# T1 construct: The full-length α1D cDNA from pVDCCIII(A); expressed in transfected cells; host or cells: HEK 293 (transient)
# Text: Expression vectors pVDCCIII(A), pHBCaCHα2A and pHBCaCHβ1aRBS(A) were used in two sets of transient transfections of HEK 293 cells (ATCC Accession No. CRL1573). In one transfection procedure, HEK 293 cells were transiently cotransfected with the α1 subunit cDNA expression plasmid, the α2 subunit cDNA expression plasmid, the β1 subunit cDNA expression plasmid and plasmid pCMVβgal (Clontech Laboratories, Palo Alto, Calif.). Plasmid pCMVβgal contains the lacZ gene (encoding E. coli β-galactosidase) fused to the cytomegalovirus (CMV) promoter and was included in this transfection as a marker gene for monitoring the efficiency of transfection. […] The transfectants were analyzed for β-galactosidase expression by direct staining of the product of a reaction involving β-galactosidase and the X-gal substrate [Jones, J. R. (1986) EMBO 5:3133-3142] and by measurement of β-galactosidase activity [Miller, J. H. (1972) Experiments in Molecular Genetics, pp.352-355, Cold Spring Harbor Press]. To evaluate subunit cDNA expression in these transfectants, the cells were analyzed for subunit transcript production (northern analysis), subunit protein production (immunoblot analysis of cell lysates) and functional calcium channel expression (electrophysiological analysis). […]
# T1 sequence (Q01668 whole entry): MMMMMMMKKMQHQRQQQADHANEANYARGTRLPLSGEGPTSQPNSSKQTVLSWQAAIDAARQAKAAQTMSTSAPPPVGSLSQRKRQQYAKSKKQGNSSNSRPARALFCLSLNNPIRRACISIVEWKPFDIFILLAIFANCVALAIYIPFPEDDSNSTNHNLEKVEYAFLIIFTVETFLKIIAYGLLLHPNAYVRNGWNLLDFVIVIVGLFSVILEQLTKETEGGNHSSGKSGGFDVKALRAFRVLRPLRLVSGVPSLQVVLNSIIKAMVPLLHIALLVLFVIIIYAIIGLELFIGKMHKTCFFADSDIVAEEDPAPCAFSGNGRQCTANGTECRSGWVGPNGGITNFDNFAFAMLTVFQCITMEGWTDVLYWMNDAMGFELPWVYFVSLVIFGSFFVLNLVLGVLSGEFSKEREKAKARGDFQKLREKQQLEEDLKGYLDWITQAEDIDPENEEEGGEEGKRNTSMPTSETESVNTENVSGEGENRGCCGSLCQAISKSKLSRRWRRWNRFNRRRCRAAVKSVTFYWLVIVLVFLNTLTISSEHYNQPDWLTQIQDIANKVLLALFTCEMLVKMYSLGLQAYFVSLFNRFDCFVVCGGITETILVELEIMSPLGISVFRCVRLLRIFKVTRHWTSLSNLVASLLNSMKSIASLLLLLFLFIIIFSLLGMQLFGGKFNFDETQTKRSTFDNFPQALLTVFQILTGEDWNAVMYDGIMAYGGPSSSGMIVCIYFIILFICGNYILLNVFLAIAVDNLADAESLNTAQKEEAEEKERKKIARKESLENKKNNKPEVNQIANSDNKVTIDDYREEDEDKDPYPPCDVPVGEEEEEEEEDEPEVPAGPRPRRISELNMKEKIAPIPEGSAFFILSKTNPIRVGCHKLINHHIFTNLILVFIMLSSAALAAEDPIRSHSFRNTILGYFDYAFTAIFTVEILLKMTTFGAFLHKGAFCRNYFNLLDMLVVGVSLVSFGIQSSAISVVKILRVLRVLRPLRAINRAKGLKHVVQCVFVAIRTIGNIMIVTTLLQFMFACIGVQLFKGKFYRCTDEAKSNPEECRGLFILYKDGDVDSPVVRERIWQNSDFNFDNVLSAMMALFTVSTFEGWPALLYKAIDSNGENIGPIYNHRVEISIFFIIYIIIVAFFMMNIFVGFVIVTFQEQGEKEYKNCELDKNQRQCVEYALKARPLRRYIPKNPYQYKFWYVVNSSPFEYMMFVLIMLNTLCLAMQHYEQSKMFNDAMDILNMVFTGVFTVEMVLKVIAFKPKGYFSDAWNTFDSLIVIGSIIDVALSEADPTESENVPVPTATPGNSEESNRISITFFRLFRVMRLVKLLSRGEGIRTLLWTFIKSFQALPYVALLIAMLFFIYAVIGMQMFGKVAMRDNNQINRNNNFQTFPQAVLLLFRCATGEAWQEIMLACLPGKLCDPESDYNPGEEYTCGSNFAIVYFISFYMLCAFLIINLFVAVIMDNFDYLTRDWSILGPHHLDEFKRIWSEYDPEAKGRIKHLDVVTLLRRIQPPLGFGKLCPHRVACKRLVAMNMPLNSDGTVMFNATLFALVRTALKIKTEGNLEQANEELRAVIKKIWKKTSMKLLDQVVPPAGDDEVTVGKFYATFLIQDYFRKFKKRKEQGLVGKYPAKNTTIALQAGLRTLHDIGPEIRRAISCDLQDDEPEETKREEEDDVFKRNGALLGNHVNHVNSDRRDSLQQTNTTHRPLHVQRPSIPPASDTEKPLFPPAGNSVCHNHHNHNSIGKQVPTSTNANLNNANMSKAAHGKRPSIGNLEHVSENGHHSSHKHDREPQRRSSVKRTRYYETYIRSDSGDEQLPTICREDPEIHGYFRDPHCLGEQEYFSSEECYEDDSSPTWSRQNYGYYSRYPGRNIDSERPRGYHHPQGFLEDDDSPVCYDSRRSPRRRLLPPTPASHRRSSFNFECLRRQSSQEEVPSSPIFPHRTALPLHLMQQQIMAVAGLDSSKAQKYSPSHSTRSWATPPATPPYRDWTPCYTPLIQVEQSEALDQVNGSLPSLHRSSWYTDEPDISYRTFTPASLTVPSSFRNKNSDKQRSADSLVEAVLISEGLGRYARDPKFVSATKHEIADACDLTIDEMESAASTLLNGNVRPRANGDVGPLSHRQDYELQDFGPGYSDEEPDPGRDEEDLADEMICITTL
smiles,measurement,setting,value
COC(=O)C1=C(C)NC(C)=C([N+](=O)[O-])C1c1ccccc1C(F)(F)F (centres unmarked) [Bay K 8644],effect on discernable inward barium current,"[1]; 1 μM Bay K 8644, one cell",not affected
same,appearance of currents in cells that did not display Ba2+ currents,"[1]; Bay K 8644, four cells",did not result in the appearance of any currents
same,response of barium currents to Bay K 8644,[2],little or no response
same,amplification of inward barium current,"[3]; 1 μM Bay K 8644, 30 pA current",2 fold
same,tail currents,[3]; in the presence of Bay K 8644,small tail currents were detected
